# Reference: publication PMC4336329 (PLoS ONE, 2015)
# Out of some 310,000 compounds screened, about 14,000 (4.5%) showed an effect of 50% or more. Effects have a minus sign here. The list shows a part of the results.
# Biological target: human ether-à-go-go-related gene (hERG) potassium channel (human, UniProt Q12809)
# Test: primary screen, population patch clamp on CHO cells stably expressing hERG
# 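Also: peak tail current of the secondary pulse compared with the same well before compound.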
# human ether-à-go-go-related gene (hERG) potassium channel, sequence (Q12809 whole entry, looked up): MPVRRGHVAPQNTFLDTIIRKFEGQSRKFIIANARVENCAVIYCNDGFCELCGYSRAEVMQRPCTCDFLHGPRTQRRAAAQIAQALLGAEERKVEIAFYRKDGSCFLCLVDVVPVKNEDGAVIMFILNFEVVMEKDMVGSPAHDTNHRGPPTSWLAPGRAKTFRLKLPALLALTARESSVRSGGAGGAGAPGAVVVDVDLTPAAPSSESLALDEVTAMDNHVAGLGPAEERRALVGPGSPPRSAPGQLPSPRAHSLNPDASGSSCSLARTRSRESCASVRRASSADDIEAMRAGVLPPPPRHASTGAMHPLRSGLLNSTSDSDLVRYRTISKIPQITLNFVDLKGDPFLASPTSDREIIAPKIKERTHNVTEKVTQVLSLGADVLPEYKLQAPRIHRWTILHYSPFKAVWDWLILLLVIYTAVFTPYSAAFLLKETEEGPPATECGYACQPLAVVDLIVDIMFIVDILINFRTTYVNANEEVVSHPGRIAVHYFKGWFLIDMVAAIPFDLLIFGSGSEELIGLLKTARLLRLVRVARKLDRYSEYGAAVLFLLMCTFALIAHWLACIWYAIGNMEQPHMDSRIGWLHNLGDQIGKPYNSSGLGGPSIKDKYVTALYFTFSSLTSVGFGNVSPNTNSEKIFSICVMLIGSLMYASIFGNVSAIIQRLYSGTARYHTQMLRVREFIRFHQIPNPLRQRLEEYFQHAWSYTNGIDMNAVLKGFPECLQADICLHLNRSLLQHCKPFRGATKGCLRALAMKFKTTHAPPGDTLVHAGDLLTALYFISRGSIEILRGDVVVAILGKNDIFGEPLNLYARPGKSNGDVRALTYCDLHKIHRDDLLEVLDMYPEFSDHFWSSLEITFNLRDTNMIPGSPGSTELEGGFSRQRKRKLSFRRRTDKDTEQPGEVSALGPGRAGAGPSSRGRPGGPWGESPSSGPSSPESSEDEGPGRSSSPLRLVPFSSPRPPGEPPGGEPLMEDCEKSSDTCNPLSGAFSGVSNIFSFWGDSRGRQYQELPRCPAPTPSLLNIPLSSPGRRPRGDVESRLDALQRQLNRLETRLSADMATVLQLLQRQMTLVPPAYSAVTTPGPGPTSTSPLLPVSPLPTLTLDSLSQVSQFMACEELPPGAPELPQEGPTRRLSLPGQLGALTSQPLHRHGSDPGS
row,Structure (SMILES),"hERG current change (%, negative = inhibition) at 10uM [%]"
1,Cc1c(Cl)c(C(F)(F)F)nn1CC(=O)NN,2.79
2,CN1CCN(c2ccccc2NC(=O)c2ccc3c(c2)OCCO3)CC1,-3.67
3,CC(C(=O)O)c1n[nH]c(=O)c2ccccc12 (stereo not shown),2.79
4,O=c1oc2ccccc2c(O)c1/C=N/c1ncccn1,0.537
5,Cc1ccc(S(=O)(=O)CCC(=O)OCC(=O)N(C)C2CCS(=O)(=O)C2)cc1 (stereo not shown),16.7
6,Cc1ccc(OCc2nc(-c3ccc(Cl)cc3)n[nH]2)cc1.Cl,-14.3
7,O=c1[nH]c2ccccc2nc1C(F)(F)C(F)F,0.228
8,CCN(CC)CCNC(=O)C(=O)NCC1OCCN1S(=O)(=O)c1ccc([N+](=O)[O-])cc1 (stereo not shown),-9.32
9,Cl.NCCc1c[nH]c2ccc(O)cc12,6.86
10,Cc1ccc(NC(=O)CCn2c(=O)[nH]c3ccsc3c2=O)cc1C,16.6
11,Cc1ccc(N2CCN(CC(O)COc3ccc([N+](=O)[O-])cc3)CC2)cc1 (stereo not shown),-76.4
12,CCN(c1ccccc1)S(=O)(=O)c1ccc(Cl)c(C(=O)N(CC2CCCO2)C2CCS(=O)(=O)C2)c1 (stereo not shown),-5.04
13,NC(=O)CS(=O)(=O)c1nc2ccccc2n1Cc1ccccc1F,11.6
14,CN1C(=O)[C@H]2[C@@H](C3CC3)N3C(=O)CN(Cc4ccccn4)C(=O)[C@@]3(Cc3ccccc3)[C@H]2C1=O,-0.814
15,NC(=O)CC(NC(=O)c1cccc(Br)c1)c1ccc(NC2CCCCCCC2)c([N+](=O)[O-])c1 (stereo not shown),6.95
16,O=C(c1ccc(F)cc1)N1CCC(C(=O)N2CCN(S(=O)(=O)c3cccc(F)c3)CC2)CC1,-11.6
17,CCCCn1c(N)c(N(CCOC)C(=O)c2oc3ccc(OC)cc3c2C)c(=O)[nH]c1=O,9.82
18,COc1cc(C(=O)COC(=O)c2cnc(C)cn2)ccc1OC(F)F,17
19,Cc1ccc(NC(=O)CN(C)Cc2cccs2)cc1Cl,-5.93
20,Cc1nn(Cc2ccccc2Cl)c(C)c1C(=O)Nc1nnc(C2CC2)s1,-12
21,CC(=O)N=c1cccc(NC(C)=O)n1O,1.57
22,O=C(O)CC(=O)NC12CC3CC(CC(C3)C1)C2,6.41
23,CC1(C)CC(=O)c2sc(NC(=O)c3cccs3)nc2C1,1.36

row,Structure (SMILES),"hERG current change (%, negative = inhibition) at 10uM [%]"
1,COc1cc(/C=N/NC(=O)c2cccnc2)ccc1OC(=O)c1cccc(Br)c1,5.79
2,CCCCN1C(=O)CC(C(=O)O)C1c1ccc(OC)cc1 (stereo not shown),-3.09
3,COC(=O)c1ccc(C)c(-n2c(=O)n(Cc3ccccc3)c(=O)c3[nH]cnc32)c1,0.882
4,C#CCOc1ccc(Cl)cc1/C=C1/C(=O)ON=C1C,12.6
5,NS(=O)(=O)c1ccc(NC(=S)NCc2ccc(F)cc2)cc1,-16.3
6,Cc1nnc(SCC(=O)NNC(=O)c2ccc(Cl)cc2)s1,25.6
7,CCCN(CCO)Cc1cccc(Oc2ccccc2)c1,-19.2
8,COc1ccccc1-c1c(C)nn2c(C)c(C(C)=O)cnc12,-1.84
9,C=CCn1c(COc2ccc(Cl)cc2)nnc1SCc1ccc(C#N)cc1,-69.8
10,CCOC(=O)COc1nc2ccc(Br)cc2c(-c2ccccc2)c1C(C)=O,12.1
11,Cc1ccc2sc(C)[n+](CCO)c2c1.[I-],18.8
12,CC(C)CCNC(=O)C1CCC(CNc2c(N3CCC(C)CC3)c(=O)c2=O)CC1 (stereo not shown),11.3
13,O=S(=O)(Cc1ccccc1)Nc1ccc(S(=O)(=O)N2CCCC2)cc1,5.25
14,O=C(c1cc2ccccc2c(=O)o1)N1CCCCCC1,-10.8
15,Cl.Fc1ccccc1COc1ccc(Br)cc1CNCc1ccncc1,-70.2
16,O=C(CCC1CCCC1)Nc1cccn(Cc2ccccc2Br)c1=O,-14.5
17,Cn1ccnc1SCc1cccc([N+](=O)[O-])c1,-39.6
18,CCc1nnc(NC(=O)CSc2sc3c(O)cc(=O)[nH]c3c2C#N)s1,-2.53
19,CC(Oc1ccc(Br)cc1)C(=O)O/N=C(\N)c1ccncc1 (stereo not shown),5.16
20,CCCCn1c(=O)nc2n(-c3ccc(Cl)cc3)c3ccccc3cc-2c1=O,6.05
21,CCOc1cccc(-c2nn3c(-c4ccccn4)nnc3s2)c1,6.33
22,COc1cc(OC)cc(C(=O)NCCSCc2ccc(Cl)cc2)c1,-13.1
23,CCN1CCN(CCNC(=O)c2ccc3c(c2)N(Cc2ccc(F)cc2)C(=O)c2ccccc2S3=O)CC1 (stereo not shown),-11.6

row,Structure (SMILES),"hERG current change (%, negative = inhibition) at 10uM [%]"
1,O=C(C1CCCO1)N(c1cccc(Cl)c1)C1C=CS(=O)(=O)C1 (stereo not shown),-1.98
2,CC(=O)c1ccc(N2CCN(c3ccccc3O)CC2)c([N+](=O)[O-])c1,8.34
3,Cc1ccc(C(=O)Nc2nc3ccccc3s2)s1,8.75
4,COC(=O)c1ccccc1NC(=O)c1ccccc1NS(C)(=O)=O,-32.1
5,COC(=O)c1ccc(COC(=O)c2cnc(Cl)c(Cl)c2)cc1,11.7
6,CCn1ccnc1CNC(=O)c1cc(COc2ccc(F)cc2F)on1,1.1
7,COCCNc1nc2nonc2nc1N(C)Cc1ccc(C)cc1,-12.9
8,CC1=CC2=NC(=O)/C(=C\c3cccn3CCOc3ccc(C)c(C)c3)C(=N)N2O1,-14.5
9,CCc1[nH]nc(C(=O)N2CCCC(Nc3cccc(F)c3)C2)c1C (stereo not shown),16
10,Cc1nc(SCC(=O)Nn2c(-c3ccccc3)nc3ccccc3c2=O)n[nH]1,-2.34
11,Cc1ccc(-c2nc(CSCC(=O)NC3CCN(Cc4ccccc4)CC3)c(C)o2)cc1,-44
12,O=C(COC(=O)c1ccc(CO)cc1)Nc1ccc(OC(F)F)cc1,-3.17
13,COC(=O)C(C)Oc1cc(C)cc2oc(=O)c3c(c12)CCC3 (stereo not shown),-12.7
14,CCCCOc1ccc(NC(=O)CSc2nnnn2C)cc1,-2.43
15,O=C(Nc1ccc2c(c1)OCCO2)c1ccc(Cl)c(Cl)c1,2.3
16,CC(C)Cn1c(=O)c(C(=O)N/N=C/c2cccc(F)c2)c(O)c2ccccc21,8.46
17,Nc1ncnc2c1ncn2CCN1CCOCC1,-5.44
18,CCn1c(SCC(=O)N2CCCc3ccccc32)nc2cccnc21,11
19,CCC(C(=O)Nc1ccon1)c1ccccc1 (stereo not shown),2.45
20,Cc1ccccc1-n1nc(-c2cccnc2)cc1C(=O)N/N=C/c1ccncc1,-28.5
21,COc1cccc(C2Nc3ccccc3NC3=C2C(=O)CC(C)(C)C3)c1 (stereo not shown),4.03
22,C[C@H](O)c1[nH]c2cc(F)ccc2c1[C@H](C)O,14
23,CCOC(=O)c1c(NC(=O)COC(=O)c2ccc(O)cc2)sc(C(=O)NC)c1C,-4.31

row,Structure (SMILES),"hERG current change (%, negative = inhibition) at 10uM [%]"
1,CCN(c1ccc(OC)cc1)S(=O)(=O)c1ccc2c(c1)NC(=O)CS2,0.887
2,COC(=O)C1=C(NC(=O)CCCCl)CCS1,4.44
3,Nc1c(-c2ccsc2)cnc2ncnn12,3.99
4,COc1ccc(CCNC(=S)N2CCN(S(=O)(=O)c3ccccc3F)CC2)cc1,-3.68
5,COc1ccc(C(=O)CSc2nnc(C3CC3)n2N)cc1,-20.7
6,c1ccc(OCCCn2nnc(-c3cccnc3)n2)cc1,-9.25
7,CC(=O)Nc1ccc(S(=O)(=O)N2CCN(CC(O)COc3ccc4ccccc4c3)CC2)cc1 (stereo not shown),-22.6
8,O=C(c1cccs1)N1CCc2ccccc2C1,15.7
9,Br.NCc1cc(=O)[nH]o1,2.7
10,COc1ccc(NS(=O)(=O)c2ccc3c(c2)NC(=O)CO3)c(OC)c1,5.54
11,CCOC(=O)C1=C(C)N=C2SCCC(=O)N2[C@@H]1c1cccs1,5.23
12,CC1CCN(S(=O)(=O)N2CCC(C(=O)NCCN3CCOCC3)CC2)CC1,-0.384
13,O=C(O)c1cnn2c(C(F)(F)F)cc(-c3ccccc3)nc12,8.78
14,CC(C)c1nnc(NC(=O)c2ccc(S(=O)(=O)N3CCOCC3)cc2)s1,6.52
15,Cc1csc(NC(=O)c2ccc3nc[nH]c3c2)n1,-20
16,Cc1ccc(Oc2nnc(-c3ccc(C)cc3)c3ccccc23)cc1,2.75
17,COc1cc(NC(=O)Cn2c(=O)n(CC3CCCO3)c(=O)c3cc(OC)c(OC)cc32)cc(OC)c1 (stereo not shown),9.3
18,O=C(Nc1ccccc1)C1CCCCN1S(=O)(=O)c1ccccc1 (stereo not shown),1.13
19,O=S(=O)(c1ccccc1F)N1CCN(c2nc(-c3cccnc3)nc3ccccc23)CC1,-41.9
20,COc1ccc(-n2nc(C(=O)NCC(=O)N3CCN(Cc4ccccc4)CC3)c3ccccc3c2=O)cc1,-25.7
21,Nc1nc2c3ccccc3nc(C3CC3)n2n1,15.3
22,CCOc1ccc(-c2cc(C(=O)NCCCn3ccnc3)c3cc(Br)ccc3n2)cc1,7.06
